We go through two molecules from KR20190105077A.

Assay [1] has as its target 배양된 세포에 의해 내인적으로 생성되는 TGF-β. The experiment in a line: cell-based or functional assay.
For the next assay, the target named is 모든 인간 및 쥐과 TGF-β 이소형. The experiment in a line: SPR (summing-up sentence of Example 1).
Assay [2] addresses 인간 TGF-β3 (human TGF-β3) (human) (UniProt P10600). The assay can be described thus: SPR, Biacore T200, TGF-β homodimer immobilised at low density on CM5 chip, Ab1 injected at 1.11-30 nM, 1:1 model.
In assay [3] the target is 쥐과 TGF-β2 (murine TGF-β2) (mouse) (UniProt P27090). Described as above.
The target of assay [4] is 인간 TGF-β2 (human TGF-β2) (human) (UniProt P61812). The description is as above.

Values joined by “and” are separate entries in the source; they are usually repeats but may differ in a detail not shown here. Identical values can stand only once.

UniProt P10600, sequence (P10600 301-412): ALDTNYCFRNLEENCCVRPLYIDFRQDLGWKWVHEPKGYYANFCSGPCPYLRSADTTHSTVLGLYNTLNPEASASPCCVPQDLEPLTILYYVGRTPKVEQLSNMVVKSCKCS

B1: Ab1 (antibody, human IgG4 S228P, kappa)
heavy: QVQLVQSGAEVKKPGSSVKVSCKASGYTFSSNVISWVRQAPGQGLEWMGGVIPIVDIANYAQRFKGRVTITADESTSTTYMELSSLRSEDTAVYYCASTLGLVLDAMDYWGQGTLVTVSSASTKGPSVFPLAPCSRSTSESTAALGCLVKDYFPEPVTVSWNSGALTSGVHTFPAVLQSSGLYSLSSVVTVPSSSLGTKTYTCNVDHKPSNTKVDKRV[human IgG4 Fc with S228P (EU numbers) omitted here]
light: ETVLTQSPGTLSLSPGERATLSCRASQSLGSSYLAWYQQKPGQAPRLLIYGASSRAPGIPDRFSGSGSGTDFTLTISRLEPEDFAVYYCQQYADSPITFGQGTRLEIKRTVAAPSVFIFPPSDEQLKSGTASVVCLLNNFYPREAKVQWKVDNALQSGNSQESVTEQDSKDSTYSLSSTLTLSKADYEKHKVYACEVTHQGLSSPVTKSFNRGEC
As usually defined, the Kd is a measure of binding affinity in units of concentration. As usually defined, the koff is a measure of how fast the partners let go of each other. A lower koff goes with slow dissociation. A word on the kon: it is a measure of how fast the partners come together. Read a high kon as faster complex formation. As to B1, the iTreg(FOXP3+CD25+) 백분율, 자극된 인간 CD4+ T 세포, 항체 50 ㎍/㎖, 외인성 TGF-β 없음 (항체 없이 15%) in assay [1] worked out at 8%. Besides, the Kd is 1 nM and 5 nM with 모든 인간 및 쥐과 TGF-β 이소형; 1.65 nM in assay [2]; 1.88 nM in assay [3]; 3 nM in assay [4]. The figures for the koff in assay [2], in assay [3] and in assay [4] were 0.000372 s⁻¹, 0.000645 s⁻¹ and 0.000823 s⁻¹, respectively. Besides, the kon in assay [2] amounted to 223000 M⁻¹ s⁻¹; in assay [3], 348000 M⁻¹ s⁻¹; in assay [4], 286000 M⁻¹ s⁻¹.

B2: 프레솔리무맵 (fresolimumab) (antibody, human IgG4, kappa)
heavy: QVQLVQSGAEVKKPGSSVKVSCKASGYTFSSNVISWVRQAPGQGLEWMGGVIPIVDIANYAQRFKGRVTITADESTSTTYMELSSLRSEDTAVYYCASTLGLVLDAMDYWGQGTLVTVSSASTKGPSVFPLAPCSRSTSESTAALGCLVKDYFPEPVTVSWNSGALTSGVHTFPAVLQSSGLYSLSSVVTVPSSSLGTKTYTCNVDHKPSNTKVDKRV[human IgG4 Fc omitted here]
light: ETVLTQSPGTLSLSPGERATLSCRASQSLGSSYLAWYQQKPGQAPRLLIYGASSRAPGIPDRFSGSGSGTDFTLTISRLEPEDFAVYYCQQYADSPITFGQGTRLEIKRTVAAPSVFIFPPSDEQLKSGTASVVCLLNNFYPREAKVQWKVDNALQSGNSQESVTEQDSKDSTYSLSSTLTLSKADYEKHKVYACEVTHQGLSSPVTKSFNRGEC
B2: in assay [1], the iTreg(FOXP3+CD25+) 백분율, 자극된 인간 CD4+ T 세포, 항체 50 ㎍/㎖, 외인성 TGF-β 없음 (항체 없이 15%) came out at 7%.
